Experimental findings from the supplement of paper PMC3334620 are described below.

In all, about 33,000 sequences were measured (“E-score (-0.5 to 0.5)”: median about -0.043, highest 2% from about 0.37 on). This is one part of the list.

The target in this assay is T1, Upc2 (UniProt Q12151).
T1 sequence: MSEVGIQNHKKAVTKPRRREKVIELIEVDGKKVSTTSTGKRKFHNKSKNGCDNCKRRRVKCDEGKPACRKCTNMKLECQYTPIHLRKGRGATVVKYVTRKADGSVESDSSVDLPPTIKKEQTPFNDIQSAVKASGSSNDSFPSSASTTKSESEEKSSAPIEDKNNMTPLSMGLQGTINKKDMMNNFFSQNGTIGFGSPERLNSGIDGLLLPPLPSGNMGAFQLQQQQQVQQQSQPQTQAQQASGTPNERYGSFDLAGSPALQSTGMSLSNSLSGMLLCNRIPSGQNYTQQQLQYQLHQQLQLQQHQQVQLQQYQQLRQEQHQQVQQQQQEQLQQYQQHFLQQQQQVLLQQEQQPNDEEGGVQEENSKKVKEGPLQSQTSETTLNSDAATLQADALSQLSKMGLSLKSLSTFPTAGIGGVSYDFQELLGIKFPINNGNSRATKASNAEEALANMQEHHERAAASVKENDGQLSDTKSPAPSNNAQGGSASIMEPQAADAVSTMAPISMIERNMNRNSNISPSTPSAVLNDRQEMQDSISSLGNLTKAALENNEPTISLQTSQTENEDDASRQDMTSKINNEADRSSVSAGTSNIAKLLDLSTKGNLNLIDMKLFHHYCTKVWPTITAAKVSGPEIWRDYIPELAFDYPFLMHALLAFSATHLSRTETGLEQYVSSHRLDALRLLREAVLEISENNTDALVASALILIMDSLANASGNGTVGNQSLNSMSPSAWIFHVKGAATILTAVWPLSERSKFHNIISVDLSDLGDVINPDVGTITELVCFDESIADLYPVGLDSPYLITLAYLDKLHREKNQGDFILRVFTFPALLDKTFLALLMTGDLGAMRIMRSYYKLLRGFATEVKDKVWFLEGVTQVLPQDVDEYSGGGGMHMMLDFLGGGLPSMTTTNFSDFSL
The experiment in a line: PBM E-score (8-mer binding enrichment) (E-score (-0.5 to 0.5)); higher = stronger / more preferred TF binding; most listed sequences are background and not binding sites. As to conditions: protein concentration: 200 nM; construct: GST-full length. Summed up: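 Yeast transcription factors carrying a GST tag, as full-length proteins or DNA-binding domains, were produced by PURExpress in vitro transcription/translation. About 100-200 nM protein was applied to universal all-10-mer Agilent arrays, double-stranded by primer extension on fresh or once-stripped slides. Bound protein was detected with fluorescent anti-GST, and scans were normalised with masliner. The Universal PBM Analysis Suite gave each ungapped eight-base word, pooled with its reverse complement, an E-score, a modified Wilcoxon-Mann-Whitney statistic.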
With ATAAGCTG, the “PBM E-score” value is -0.167.
To ATTCGGGG belongs -0.0964.
With CGGCTCCC, the “PBM E-score” value was -0.00596.
To CGCGCTTC belongs 0.0064.
CAAGTGGC: the “PBM E-score” value is -0.244.
The same measure for GCCAAGAA: -0.146; for TCTCAAAA: -0.133; for CGCACAAA: 0.214.
The same measure for ACGAACCT: 0.244.
The same measure for ATTCGGAA: 0.184.
On to CTAGTATA, for which the “PBM E-score” value was determined as 0.139.
The same measure for AGGGTACT: -0.133; for ATCCAGCG: -0.0436; for ACTCAGAG: -0.264.
The same measure for TAGACATA: -0.187; for AGACTCAT: -0.0217.
To AATGATGT belongs -0.0427; to GAAGCCTC, -0.0508.
In the case of TGAGTCCA, the “PBM E-score” value is -0.139.
AACTACAA: the “PBM E-score” value was -0.0367.
The same measure for AGTTCCGG: -0.0204; for GCCTTACC: -0.0799; for GGTGCGGA: -0.143.
To GCACCGTA belongs 0.371.
To ACTCGGTG belongs -0.157; to ATGTAACC, -0.00514.
On to CAGACAAC, for which the “PBM E-score” value is -0.156.
To ACACGGAG belongs -0.0181; to CTCTTTCC, -0.0582.
The same measure for CCTACTGA: -0.206; for GCCGGATA: 0.0126; for GGGTTTCA: -0.196.
To GGTCCCGA belongs 0.0868.
In the case of CGCGCTAC, the “PBM E-score” value turned out to be 0.2.
For ATAGCCTC, the “PBM E-score” value was -0.00112.
Take AAACTTGG: the “PBM E-score” value was -0.0415.
Regarding TGTCAACA, the “PBM E-score” value was determined as 0.0529.
ACTAGCCA: the “PBM E-score” value is -0.0146.
For the sequence AAGACTCC, the “PBM E-score” value is -0.217.
In the case of CAGCTTTA, the “PBM E-score” value was -0.0841.
The same measure for AGCGCCTA: -0.116; for CGGGTGTC: -0.0137.
The same measure for GGGTCGGA: 0.0691; for ACTGGTGG: -0.136; for GAACCTCA: -0.175.
On to GTGGACAA, for which the “PBM E-score” value was -0.121.
The same measure for CGAGTGTC: 0.109; for AAGGGTCC: -0.102; for CTATTACA: -0.0626.
The same measure for TAAGCCCA: -0.0856; for AACGTCCC: -0.165.
As to CGATCGCC, the “PBM E-score” value is 0.21.
To CCAGCTAC belongs -0.174; to GAAGTACA, -0.0612; to AAAGGAGC, -0.113.
To CACGCTAC belongs 0.096; to GATCCTTA, -0.063; to AGAAGGCG, -0.215.
Turning to CTGGATCC, the “PBM E-score” value was 0.00733.
To GGGTGGGA belongs 0.0703; to AATACGGT, 0.254; to GAACTCTC, -0.117.
The same measure for CCCGTGGA: -0.189.
The same measure for GAGGAACA: -0.092.
On to CCCCCCAA, for which the “PBM E-score” value is -0.261.
The same measure for CCGCCGTA: 0.351.
The same measure for CTGTGACC: -0.0738; for GCGCCTAC: -0.0379; for ACACGCAT: -0.136.
As for CACCAAAC, the “PBM E-score” value was 0.141.
The same measure for ATTACTTG: 0.0678; for ATGCGCTG: -0.0752.
To AAAAGCTC belongs 0.0262.
To CGTGTAAA belongs 0.207; to CCTTGGTC, -0.0996.
For the sequence CTATAGAG, the “PBM E-score” value was -0.342.
The same measure for CGCCACGC: -0.279; for AACCAGGA: -0.113.
Take TAGCAAAA: the “PBM E-score” value was found to be 0.0107.
For GTGACCAC, the “PBM E-score” value was -0.283.
For the sequence CCTAGACC, the “PBM E-score” value is -0.00842.
With CTACCATA, the “PBM E-score” value is -0.119.
To ACCAGTTG belongs -0.0404; to TCCCTGAA, -0.0988.
The same measure for CTAGTCTA: 0.0114.
Take AACTCTAT: the “PBM E-score” value is -0.263.
